Results on one compound are retold here after patent publication US20240374736A1, “INHALED LIQUID FOR THE TREATMENT OF RESPIRATORY INFECTIONS IN HUMANS CAUSED BY PATHOGENS RESISTANT TO ANTIBIOTICS” (priority 2023, published 2024).

In this assay the test system is Histoplasma capsulatum. Format: cell-based. To be noted: Müler-Hinton-Agar, amount used: novel compound 0.05 mL, Cephalosporin 0.1 mL, Ampicillin 0.2 mL.

As for `CC1(C)S[C@@H]2[C@H](NC(=O)[C@H](N)c3ccccc3)C(=O)N2[C@H]1C(=O)O` [Ampicilin, Ampicillin], the “R (evaluation of the results by zone diameter)” value is “R (0 mm-4 mm: resistant: R)” and the zone diameter stood at 2 mm.
